From PubChem BioAssay (NCI)
Where “and” joins values, the source holds several entries; their conditions need not be identical. Equal entries are not always repeated.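 Protocol summary: plate cells (96-well), add compound at 5 concentrations, incubate 48 h, interpolate endpoints linearly. The concentration for 50% growth inhibition is given as GI50. Definition used: TGI = concentration required for complete inhibition of growth.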

System: NCI-H322M lung
Assay: inhibition of tumour cell growth, NCI panel, 48 h

| SMILES | TGI | GI50 [µM] |
| --- | --- | --- |
| COc1cccc(/C=N/NC(=O)CN(C)C)c1O | > 100 µM | – |
| O=C1CCCCCCCCCCOC(=O)CCCCCCCCCCO1 | > 100 µM | – |
| CN1C(=O)[C@@H]2[C@@H]3c4ccccc4N[C@@H]3c3[nH]c4ccccc4c3[C@@H]2C1=O | > 100 µM | – |
| Cc1nc2cc(Nc3nc(Nc4ccc(F)cc4)nc(N4CCCC4)n3)ccc2n1Cc1ccccc1 | 4.52 µM | 2.11 |
| CC(=O)Nc1ccc(C(=O)n2[nH]c(C)c(/C=C3\C(=O)C=Cc4ccccc43)c2=O)cc1 | > 100 µM | – |
| COc1cc(-c2ccc(=O)oc2C#Cc2ccccc2)cc(OC)c1OC | > 100 µM | > 100 |
| C/C(CC(=O)Nc1cccc(C)c1C)=N\NC(N)=S | > 100 µM | – |
| O=C1CCc2ccccc2O1 | > 100 µM | – |
| CCCCC1N=CNc2c1ccc1c2[nH]c2ccccc21 (stereo unspecified) | 6.57 µM | – |
| c1ccc(Sc2nc(Sc3ccccc3)nc(Sc3ccccc3)n2)cc1 | 32.9 µM | – |
| Cc1cc(N(CCC#N)CCC#N)ccc1CC1N=C(c2ccccc2)OC1=O (stereo unspecified) | > 100 µM | – |
| CSCC(COC(C)=O)(CSC)c1ccncc1 | > 100 µM | – |
| Cc1ccc(Cc2n[nH]c(=O)n2N2C(=O)c3ccccc3C2=O)cc1 | > 100 µM | – |
| COc1c(C)c(C/C=C(\C)CCCCO)c(OC)c2ccccc12 | > 100 µM | – |
| COc1cccc(/C=C2\CCc3ccccc3C2=O)c1 | 45.3 µM | 18.1 |
| O=[N+]([O-])c1ccc2c(N=Nc3ccc4ccccc4c3O)c(O)cc(S(=O)(=O)O)c2c1 | > 78.5 µM | – |
| Cc1cc2c(C)nn(Cc3ccccc3Cl)c2c(C#N)c1C | > 100 µM | – |
| NNc1ncnc2cccc(Cl)c12 | > 100 µM | – |
| CCCCc1c2c(nc3c1CCCC3=O)CCCC2 | > 100 µM | – |
| O=C(O)c1c[nH]c2c(ccc3[nH]cc(C(=O)O)c(=O)c32)c1=O | > 100 µM | – |
| COc1ccc(NC(=O)C2=CC(=O)c3ccc(O)cc3C2=O)c(OC)c1 | > 100 µM | – |
| CC(C)(N)C(=O)N[C@@H]1C(=O)N2[C@@H]1SC(C)(C)[C@@H]2C(=O)O | > 100 µM | – |
| CCN(CC)CCNC(=O)C(Cl)=C1C(Cl)=C(Cl)C(Cl)=C1Cl | 23.1 µM | 10.1 |
| c1cnc2nc3n(c2c1)CSC3 | > 100 µM | – |
| O=C1Nc2c(ccc(Cl)c2Cl)/C1=C\c1cc(C(F)(F)F)cc(C(F)(F)F)c1 | 20.6 µM | 6.28 |
| O=C1C(c2c(O)[nH]c3ccc(I)cc23)=Nc2ccccc21 | 19.8 µM | – |

| SMILES | TGI | GI50 [µM] |
| --- | --- | --- |
| Oc1[nH]c2ccccc2c1/C=c1/ccc2c(c1)N=C(c1cc(F)cc(F)c1)N=2 | 34.9 µM | 11 |
| COC(=O)C1=C(C)NC2=C(C(=O)c3ccccc32)C1c1cn[nH]c1-c1ccccc1 (stereo unspecified) | > 100 µM | – |
| CN1c2ccccc2S(=O)(=O)n2c(COc3ccccc3)nnc21 | > 100 µM | – |
| c1ccc(N2N=NC3C4CC(C5c6ccccc6C45)C32)cc1 (stereo unspecified) | > 100 µM | – |
| COc1cc2c(cc1OC)-c1[nH]c3ccc([N+](=O)[O-])cc3c1CC(=O)N2 | > 100 µM | – |
| NCCN(CCN)/[N+]([O-])=N/O | > 100 µM | – |
| COc1cc(C2c3cc4c(cc3OC(NNc3ccccc3)C2C)OCO4)cc(OC)c1O (stereo unspecified) | 95.6 µM | – |
| COc1cc(CC(=O)c2cc3c(cc2-c2ccccc2)OCO3)cc(OC)c1OC | > 100 µM | – |
| CCC1OC2C(CC=C(C)C)=C3OC(C)(O)C(C)(CC)C(=O)C3=C3OC(=O)C=C1C32 (stereo unspecified) | > 100 µM | – |
| CC1(C)OC2OC(C(=O)c3ccccc3)C3OC(C)(C)OC3C2O1 (stereo unspecified) | > 100 µM | – |
| COC(=O)[C@H](C)[C@@H]1CC[C@](C)(CCC2=C(C)CCCC2(C)C)OO1 | > 25 µM | – |
| CN(CCCCN)c1ccc2c(=O)[nH][nH]c(=O)c2c1 | > 100 µM | – |
| C1=CC(=NN=P(c2ccccc2)(c2ccccc2)c2ccccc2)C=C1 | > 100 µM | – |
| COc1ccc(C=NCCCN=Cc2ccc(OC)cc2O)c(O)c1 | > 100 µM | – |
| CCOC(=O)c1cc([N+](=O)[O-])cc([N+](=O)[O-])c1Sc1ncnc2nc[nH]c12 | 18.8 µM | – |
| Cc1cc2c(cc1-c1cc3c(cc1C)C(C(C)C)=C(O)C(=O)/C3=C\Nc1ccccn1)/C(=C/Nc1ccccn1)C(=O)C(O)=C2C(C)C | > 100 µM | – |
| COCC1N=C(c2cc(OC)c(OC)c(OC)c2-c2cc3c(cc2[C@@H](C)O)OCO3)O[C@H]1c1ccccc1 (stereo partly specified) | > 100 µM | – |
| O=C(Nc1ccc(Cl)cc1)c1cc2ccccc2cc1OP(=O)(O)O | 36.1 µM | 3.93 |
| CCc1n[nH]c(=O)n1N=C(c1ccccc1)c1ccccc1 | > 100 µM | – |
| Cc1cc2nc(CC(C(F)(F)F)C(F)(F)F)oc2cc1C | 10.1 µM | – |
| COc1ccc(C2NC3=C(CCCC3)N2)cc1 | > 100 µM | – |
| Cc1cc(Cl)ccc1Nc1nc2c(s1)C(=O)c1ccccc1C2=O | 10.5 µM | – |
| CCOC(=O)Cn1c(=O)[nH]c(=O)c2[nH]cnc21 | > 100 µM | – |
| CN1CCN(Cn2nc(-c3cc(F)c(Cl)cc3Cl)oc2=S)CC1 | > 100 µM | 36.9 |
| O=C(CC(=O)N1N=C(c2ccccc2)C(N=Nc2ccccc2Cl)C1=O)Nc1ccccc1Cl (stereo unspecified) | > 100 µM | – |
| CC(=O)CC12NC(=O)N(C)N=C1N(C)C(=O)N(C)C2=O (stereo unspecified) | > 100 µM | – |

| SMILES | TGI | GI50 [µM] |
| --- | --- | --- |
| O=C1C(Cl)C(c2ccc([N+](=O)[O-])cc2)N1n1cnc2ccccc2c1=O (stereo unspecified) | > 100 µM | – |
| COc1ccc2c(c1)C(=O)c1c-2c(OCCN2CCCCC2)nc2ccc(OC)cc12 | 5.34 µM | 0.707 |
| NC(CS)C(=O)NCCNc1ccc(NCCNC(=O)C(N)CS)c2c1C(=O)c1c(O)ccc(O)c1C2=O (stereo unspecified) | 1.3 µM and 0.676 µM | 0.119 |
| COc1cc(/C=C/c2ccc(S(N)(=O)=O)cc2)cc(OC)c1 | 68.7 µM | – |
| O=C(NCCCl)NCc1ccccc1 | > 100 µM | – |
| COC1=CC(c2ccc[nH]2)=N/C1=C\c1[nH]c(C)c(C)c1CCC(=O)OCc1ccccc1 | 16.5 µM | 1.95 |
| COC(=O)CN(CC1O[C@@H]2OC(C)(C)O[C@@H]2C1NC(C)=O)C(=O)OCc1ccccc1 (stereo partly specified) | > 100 µM | – |
| O=C1C(=O)N(C23CC4CC(CC(C4)C2)C3)C(=S)N1c1ccccc1 | > 100 µM | – |
| Cc1nc(-n2nc(-c3ccccc3)cc2-c2ccccc2)sc1C(/C=C/c1ccc([N+](=O)[O-])cc1)=N/NC(N)=S | > 100 µM | – |
| CCOC(=O)C1=C(O)c2ccc(OC)cc2C(=O)C1=O | > 100 µM | – |
| Nc1nc(Cl)nc2c1ncn2C1OC(CO)C(O)C1O (stereo unspecified) | > 100 µM | > 100 |
| Brc1ccc(C[N+]23CN4CN(CN(C4)C2)C3)cc1 | > 100 µM | – |
| COc1ccc(OC)c(-c2cc(=O)c3cc4c(cc3[nH]2)OCO4)c1 | > 100 µM | – |
| N/C(=N/N=C/c1cccc(F)c1)NO | > 100 µM | – |
| O=C(O)C1C2CCC(O2)C1C(=O)NCc1cccnc1 (stereo unspecified) | > 100 µM | – |
| Cc1cc(=O)[nH]c(NNC(C#N)c2ccc(N(C)C)cc2)n1 (stereo unspecified) | > 100 µM | – |
| O=C(NCCC1CN(S(=O)(=O)C(F)(F)F)c2ccccc21)OCc1ccccc1 (stereo unspecified) | > 100 µM | – |
| O=[N+]([O-])c1cccc([I+]c2ccccc2)c1 | > 100 µM | 45 |
| CP(=O)(O)C(N)c1ccccc1 (stereo unspecified) | > 100 µM | – |
| O=C1[C@H](O)[C@@H]2CCC[C@@]23CCCN13 | > 100 µM | – |
| COc1c(OC)c(OC)c(-c2cc(=O)c3c(OC)c(OC)c(OC)c(OC)c3o2)c(OC)c1OC | > 100 µM | – |
| CSc1nc(SC)c2c(C)cn(C3OC(C)C(O)C(O)C3O)c2n1 (stereo unspecified) | > 100 µM | – |
| C=CC(=C)CCC(Br)C(C)(C)Cl (stereo unspecified) | > 100 µM | – |
| CC(=O)N1CCN(CCCCN2c3ccccc3Sc3cc(N=[N+]=[N-])ccc32)CC1 | 31.4 µM | – |
| O=C(CBr)NCCc1c[nH]c2ccccc12 | 7.3 µM | – |
| COc1ccc2nc3c([N+](=O)[O-])ccc(NCCCN(C)C)c3c(N)c2c1 | 2.87 µM | – |
